Laboratory results from PubChem BioAssay AID686970 (National Center for Advancing Translational Sciences (NCATS), 2013).
The whole screen tested about 360,000 compounds, of which about 6,000 (1.7%) were called active. This list was built around the results that the source calls inconclusive (neither active nor inactive); the mix of calls is not that of the screen. Calls come from the whole dose curve; as a rule, active = well fitted cell-killing curve with a large enough effect; inconclusive = small, poorly fitted or top-dose-only effect, or effect the other way; inactive = flat fitted curve, though single readings scatter. Potencies of inconclusive entries are left out as doubtful fits.

Assay: qHTS for induction of synthetic lethality in tumor cells producing 2HG: qHTS for the HT-1080-NT fibrosarcoma cell line;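 note: NT is the 2HG producing partner of a matched IDH1 knockdown line; nearly all actives have a fitted effect of over 55% in size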;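 for activity, negative = less viability: 0% = DMSO-treated cells and -100% = media-only wells without cells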
Conditions: HT-1080-NT fibrosarcoma viability, CellTiter-Glo ATP luminescence, 48 h; activity, negative = less viability: at 46.1 µM (top of the series) unless noted
How it was run: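 Fibrosarcoma NT cells, 750 per well in 5% FBS RPMI, were exposed to compound for 48 hours. Viability: CellTiter-Glo luminescence.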
Potency is the fitted concentration of half-maximal effect; tags give direction and shape of the fitted curve.

SMILES	activity, negative = less viability	Potency
CS(=O)(=O)c1ccc(C(=O)N2CCN(C(=O)c3ccco3)CC2)cc1	inactive: 0.524%	–
O=C(N/N=C/c1cccc(OCC(=O)N2CCCC2)c1)C(=O)Nc1ccccc1F	–	inconclusive [rising, single point]
CCOC(=O)N1CCN(C(c2ccnc3ccccc23)c2nnnn2-c2ccc3c(c2)OCCO3)CC1 (stereo not given)	–	inconclusive [cytotoxic, partial curve]
COCCNC(=O)CSC1=N/C(=C/c2ccc(Cl)c(Cl)c2)C(=O)N1c1ccccc1F	–	inconclusive [cytotoxic, single point]
CCN(CC)CCCN(C(=O)c1ccco1)c1nc(-c2ccc(C)cc2)cs1	–	inconclusive [cytotoxic, single point]
CCC1=NN(C(=O)C(=O)Nc2ccc(Br)cc2)C(O)(C(F)(F)F)C1 (stereo not given)	–	active: 20.6 µM
COc1ccc(C(=O)COC(=O)c2cnc(C)cn2)cc1OC	inactive: -2.69%	–
CC1(C)CC(=O)C(C(C#Cc2ccccc2)C2=C(O)CC(C)(C)CC2=O)=C(O)C1	–	inconclusive [cytotoxic, single point]
COc1ccc2c(c1)C=C(CN1CCC(CO)(CCc3ccccc3)CC1)CO2	inactive: -7.6%	–
CCCOc1ccc(C(F)(F)F)cc1NS(=O)(=O)c1ccc(Cl)nc1	–	inconclusive [cytotoxic, partial curve]
CCCCCc1nc2sc3c(c2c(=O)n1NC(=O)c1ccc([N+](=O)[O-])cc1)CC(C)(C)OC3	–	active: 5.8 µM
CCOC(=O)C1=C(Cc2ccc(F)cc2)C(=O)c2ccccc2C1=O	–	active: 17.8 µM
CC(C)CC(=O)Nc1ccc(S(=O)(=O)N2CCCC2)cc1	inactive: 6.19%	–
CCc1nc2ccc(C(=O)Nc3cc(-c4ccccc4)ccc3OC)cn2c1N(C)Cc1ccc(OC)cc1	inactive: -18.3%	–
CC1(C)N=C(N)NC(Nc2ccccc2)=N1	–	active: 8.2 µM
O=C(/C(=C/O)N=Nc1cccc(C(F)(F)F)c1)c1ccccc1	–	inconclusive [cytotoxic, single point]
CCN1CCN(c2nn3c(=O)c4ccccc4nc3c3ccccc23)CC1	–	inconclusive [cytotoxic, single point]
CCc1c(C)sc(NC(=O)c2cc(CC(C)C)on2)c1C#N	inactive: 7.71%	–
CCc1nnc(NC(=O)c2ccc(-c3ccc(F)cc3)o2)s1	–	inconclusive [rising, single point]
CC(C)(C)OC(=O)NCCCC[C@H](NC(=O)c1[nH]cnc1C(=O)Nc1ccc(CNC(=O)OC(C)(C)C)cc1)C(=O)OC(C)(C)C	–	inconclusive [cytotoxic, single point]
